Where “and” joins values, the source holds several entries; their conditions need not be identical. Equal entries are not always repeated. Among all 420,000 compounds or so, about 50,000 (12%) were called active. Inconclusive results, whose numbers are uncertain, are shown with a selection of clear calls. The call rests on the fitted dose curve; in most records, active means well fitted inhibition curve with a large enough effect; inconclusive means small, poorly fitted or top-dose-only effect; inactive means flat fitted curve, though single readings scatter. Potencies beside an inconclusive call are fits to weak or partial responses and may not hold up.
Assay: qHTS for Inhibitors of human tyrosyl-DNA phosphodiesterase 1 (TDP1): qHTS in cells in presence of CPT; further: nearly all actives have a fitted effect of over 55% in size
Conditions: chicken DT40 Tdp1-/-;hTDP1 cells + 20 nM CPT, ATP luminescence, 48 h; activity change, negative = growth inhibition: at 46.2 µM (top of the series) unless noted
How it was run: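 Chicken DT40 Tdp1-/- cells stably complemented with human TDP1 were seeded at 400 cells/well in medium containing 20 nM camptothecin, exposed to pin-transferred compounds, and grown at 37 °C for at least 48 hr. Viability was read as ATP luminescence.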
On the % scale 0 is the no-effect control and ±100 the full control effect; potency means the concentration at half of the fitted maximal effect; tags describe the fitted curve by direction and shape.

Row | SMILES | Potency | activity change, negative = growth inhibition
1 | CCOC(=O)[C@]12CCCC=C1N(Cc1ccc(Cl)cc1Cl)C(=O)[C@H](CC(=O)N1CCCC1)C2 | inconclusive: 20.6 µM [inhibitor, single point] | –
2 | CCOc1cc(N2CCOCC2)c(OCC)cc1NC(=O)c1cc(S(=O)(=O)N2CCOCC2)ccc1F | inconclusive: 25.9 µM [inhibitor, single point] | –
3 | COc1ccc(NC(=O)Cn2cc(C(=O)c3ccncc3)c(=O)c3cc(C)ccc32)cc1Cl | inactive | –
4 | COC(=O)c1ccc(NC(=O)COc2ccc(S(=O)(=O)NC(C)(C)C)cc2)cc1 | inactive | –
5 | COC(=O)c1ccc(C)c(NC(=O)CSc2nc3[nH]c(=O)cc(O)c3s2)c1 | inactive | –
6 | Cc1ccc(C(=O)C[n+]2cccc3cccc(O)c32)cc1 | inconclusive: 35.5 µM [inhibitor, single point] | –
7 | Cc1ncc2c(c1CNC(=O)/C=C/c1cccs1)CCN(C(=O)c1c(C)noc1C)C2 | – | inactive: 15.6% [at 9.04 µM]
8 | CC1(Cc2cccc(F)c2)C(=O)Nc2ccc(S(=O)(=O)NC3CCCCC3)cc21 (centres undefined) | inconclusive: 20.6 µM [inhibitor, single point] | –
9 | Cc1cc(S(=O)(=O)N2CCN(Cc3ccc4c(c3)OCO4)CC2)cc(C)c1N1CCCC1=O | inconclusive: 29.1 µM [inhibitor, single point] | –
10 | CC(C)(CNC(=O)c1cccs1)CNC(=O)c1cccs1 | inactive | –
11 | Cc1ccnc(NC(=O)CCCOc2cc(=O)n(C)c3ccccc23)c1 | inconclusive: 29.1 µM [inhibitor, single point] and inconclusive: 18.4 µM [inhibitor, single point] | –
12 | O=S(=O)(c1ccc(F)c(F)c1)N1CCN(c2ncccn2)CC1 | inactive | –
13 | COc1ccc(/C=C2/C(=O)ON=C2C)cc1Br | inconclusive: 14.6 µM [inhibitor, partial curve] | –
14 | Cc1cc(C(F)(F)F)nn1Cc1n[nH]c(=S)n1-c1cccc(Cl)c1 | inactive | –
15 | CCc1noc(C)c1C(=O)N1CCCC(CCC(=O)NCc2cccc(OC)c2)C1 (centres undefined) | inconclusive: 29.1 µM [inhibitor, single point] | –
16 | CC(C(=O)NCC1CCCCC1)N(C)Cc1cccc(Cl)c1 (centres undefined) | inconclusive: 18.4 µM [inhibitor, single point] | –
17 | O=c1[nH]c(C2CCN(S(=O)(=O)c3ccccc3)CC2)nc2c1nnn2Cc1ccccc1 | active: 20.6 µM | –
18 | Cc1nc2ccn(Cc3ccco3)c(=O)c2cc1C(=O)Nc1ccc(F)cc1 | inconclusive: 29.1 µM [inhibitor, single point] | –
19 | Cc1sc2nc(CN(Cc3cccs3)C(=O)C3CC3)[nH]c(=O)c2c1C | active: 16.4 µM | –
